Laboratory results reported in PubChem BioAssay (NCATS).
Values joined by “and” are separate entries in the source; they are usually repeats but may differ in a detail not shown here. Equal values may be shown once. Inconclusive results, whose numbers are uncertain, are shown with a selection of clear calls. Where the call is inconclusive, the potency comes from a doubtful curve fit. Some structures have more than one record in an assay (separate samples or runs), and their calls can disagree. Active and inactive are the calls of the source. Calls come from the whole dose curve; as a rule, active = well fitted inhibition curve with a large enough effect; inconclusive = small, poorly fitted or top-dose-only effect; inactive = flat fitted curve, though single readings scatter.

Tests used:
Experiment in all cases: Cytotoxic Profiling of Annotated Libraries Using Quantitative High-Throughput Screening (AID 1296008); note: nearly all actives have a fitted effect of over 60% in size
Settings in all cases: Five cell lines viability, CellTiter-Glo ATP luminescence, 48-72 h; max response: stronger effect = lower value
CRL-7250 = normal cell line; tested on: CRL-7250
Procedure, shortened: (§1)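 Cells exposed to compounds for 48 or 72 hr at 37 degrees Celsius. Viability read as ATP-coupled luminescence with CellTiter-Glo after 10 min at room temperature.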

HEK293 = tested on: HEK293
Procedure, shortened: as §1

HaCat = tested on: HaCat
Procedure, shortened: as §1
% is set by controls: 0 for no effect and ±100 for the full control effect; potency is the fitted concentration of half-maximal effect; tags give direction and shape of the fitted curve.

## Cc1ccc(Nc2nccc(N(C)c3ccc4c(C)n(C)nc4c3)n2)cc1S(N)(=O)=O
CRL-7250
  Potency: inconclusive: 26.6 µM [inhibitor, single point] and inconclusive: 7.43 µM [inhibitor, partial curve] and active: 6.51 µM
HEK293
  Potency: inconclusive: 33.5 µM [inhibitor, single point] and active: 11.8 µM

## Clc1ccc2c(N3CCN(CCCN4CCN(c5ccnc6cc(Cl)ccc56)CC4)CC3)ccnc2c1
CRL-7250
  max response: inactive: -5.75%
HEK293
  outcome: inactive

## COc1c(Cl)cc2c([nH]c3cnccc32)c1NC(=O)c1cccnc1C
CRL-7250
  Potency: inconclusive: 29.1 µM [inhibitor, single point]
HEK293
  Potency: inconclusive: 33.2 µM [inhibitor, partial curve, poor fit]

## O=C(O)c1cccnc1
CRL-7250
  Potency: active: 16.6 µM
  max response: inactive: 0.94%
HaCat
  Potency: inconclusive: 29.6 µM [inhibitor, single point]

## Cc1n[nH]c(C)c1Cc1sc2c(c1C(=O)N1C[C@H](O)CO1)c(=O)n(C)c(=O)n2CC(C)C
CRL-7250
  Potency: inconclusive: 29.1 µM [inhibitor, partial curve, poor fit]
HEK293
  Potency: inconclusive: 0.166 µM [inhibitor, full curve]

## O=c1[nH]c(-c2ccc(C(F)(F)F)cc2)nc2c1CSCC2
CRL-7250
  Potency: inconclusive: 20.6 µM [inhibitor, single point]
HEK293
  Potency: inconclusive: 29.1 µM [inhibitor, single point]

## COc1cc2ncnc(Nc3ccc(F)c(Cl)c3)c2cc1NC(=O)C=CCN1CCCCC1
CRL-7250
  Potency: inconclusive: 8.33 µM [inhibitor, single point]
HEK293
  Potency: inconclusive: 2.96 µM [inhibitor, full curve]
